The record followed here is the supplement of paper PMC12067093, “Discovery and optimisation of a covalent ligand for TRIM25 and its application to targeted protein ubiquitination” (Chemical Science, 2025).

Compound in the experiment: Cc1cc(ccc1-c1ccccc1)C(=O)N1CCCN(CC1)C(=O)CCl [compound 10]
In words: probe-labelled cysteine peptide fold change vs DMSO (competition) (log2 fold change); higher = less target engagement (more negative = stronger competition). The note with it: THP-1, incubation time: 4 h.

Targets with the largest changes are over-represented here; the source holds about 21,000 in all.
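Also: competitive profiling in live THP-1 cells: cysteine peptides tagged with an iodoacetamide desthiobiotin (IA-DTB) probe, intensity after compound treatment relative to DMSO-treated cells.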

UniProt Q12769, sequence (Q12769 whole entry, looked up): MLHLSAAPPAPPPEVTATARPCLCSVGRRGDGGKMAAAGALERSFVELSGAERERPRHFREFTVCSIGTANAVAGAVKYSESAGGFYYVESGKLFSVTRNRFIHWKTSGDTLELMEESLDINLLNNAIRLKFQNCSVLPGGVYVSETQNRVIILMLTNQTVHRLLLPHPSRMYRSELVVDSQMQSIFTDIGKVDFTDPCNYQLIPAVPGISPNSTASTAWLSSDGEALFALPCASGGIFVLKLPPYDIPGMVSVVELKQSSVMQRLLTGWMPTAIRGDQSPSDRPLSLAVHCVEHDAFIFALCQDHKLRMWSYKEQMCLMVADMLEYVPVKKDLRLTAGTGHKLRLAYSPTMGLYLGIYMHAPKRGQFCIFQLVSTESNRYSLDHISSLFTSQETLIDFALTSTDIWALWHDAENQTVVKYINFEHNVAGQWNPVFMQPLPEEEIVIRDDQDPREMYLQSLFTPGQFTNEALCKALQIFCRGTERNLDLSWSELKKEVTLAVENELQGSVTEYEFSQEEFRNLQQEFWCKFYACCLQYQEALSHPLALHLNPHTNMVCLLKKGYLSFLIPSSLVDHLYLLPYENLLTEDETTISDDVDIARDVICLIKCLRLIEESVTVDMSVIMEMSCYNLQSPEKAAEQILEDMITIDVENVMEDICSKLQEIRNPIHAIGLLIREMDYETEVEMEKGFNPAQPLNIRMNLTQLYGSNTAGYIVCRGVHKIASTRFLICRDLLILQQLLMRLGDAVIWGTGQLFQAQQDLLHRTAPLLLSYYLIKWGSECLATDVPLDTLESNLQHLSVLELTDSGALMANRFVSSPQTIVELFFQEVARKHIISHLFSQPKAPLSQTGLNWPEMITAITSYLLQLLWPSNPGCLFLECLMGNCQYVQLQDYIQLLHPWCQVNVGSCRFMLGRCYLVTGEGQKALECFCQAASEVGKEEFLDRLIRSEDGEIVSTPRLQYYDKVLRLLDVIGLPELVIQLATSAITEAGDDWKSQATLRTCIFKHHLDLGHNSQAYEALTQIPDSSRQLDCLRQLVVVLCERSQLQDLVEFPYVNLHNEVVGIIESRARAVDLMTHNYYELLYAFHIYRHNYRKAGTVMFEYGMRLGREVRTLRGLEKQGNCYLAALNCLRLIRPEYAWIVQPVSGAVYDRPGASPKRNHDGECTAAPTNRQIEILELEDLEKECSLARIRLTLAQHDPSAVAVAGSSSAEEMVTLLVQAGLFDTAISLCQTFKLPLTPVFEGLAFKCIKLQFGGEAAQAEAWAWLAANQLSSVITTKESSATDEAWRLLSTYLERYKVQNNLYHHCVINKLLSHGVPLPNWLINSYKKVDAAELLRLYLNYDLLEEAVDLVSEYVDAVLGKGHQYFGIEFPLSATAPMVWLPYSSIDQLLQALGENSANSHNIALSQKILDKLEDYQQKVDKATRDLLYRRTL
UniProt Q53GL7, sequence (Q53GL7 whole entry, looked up): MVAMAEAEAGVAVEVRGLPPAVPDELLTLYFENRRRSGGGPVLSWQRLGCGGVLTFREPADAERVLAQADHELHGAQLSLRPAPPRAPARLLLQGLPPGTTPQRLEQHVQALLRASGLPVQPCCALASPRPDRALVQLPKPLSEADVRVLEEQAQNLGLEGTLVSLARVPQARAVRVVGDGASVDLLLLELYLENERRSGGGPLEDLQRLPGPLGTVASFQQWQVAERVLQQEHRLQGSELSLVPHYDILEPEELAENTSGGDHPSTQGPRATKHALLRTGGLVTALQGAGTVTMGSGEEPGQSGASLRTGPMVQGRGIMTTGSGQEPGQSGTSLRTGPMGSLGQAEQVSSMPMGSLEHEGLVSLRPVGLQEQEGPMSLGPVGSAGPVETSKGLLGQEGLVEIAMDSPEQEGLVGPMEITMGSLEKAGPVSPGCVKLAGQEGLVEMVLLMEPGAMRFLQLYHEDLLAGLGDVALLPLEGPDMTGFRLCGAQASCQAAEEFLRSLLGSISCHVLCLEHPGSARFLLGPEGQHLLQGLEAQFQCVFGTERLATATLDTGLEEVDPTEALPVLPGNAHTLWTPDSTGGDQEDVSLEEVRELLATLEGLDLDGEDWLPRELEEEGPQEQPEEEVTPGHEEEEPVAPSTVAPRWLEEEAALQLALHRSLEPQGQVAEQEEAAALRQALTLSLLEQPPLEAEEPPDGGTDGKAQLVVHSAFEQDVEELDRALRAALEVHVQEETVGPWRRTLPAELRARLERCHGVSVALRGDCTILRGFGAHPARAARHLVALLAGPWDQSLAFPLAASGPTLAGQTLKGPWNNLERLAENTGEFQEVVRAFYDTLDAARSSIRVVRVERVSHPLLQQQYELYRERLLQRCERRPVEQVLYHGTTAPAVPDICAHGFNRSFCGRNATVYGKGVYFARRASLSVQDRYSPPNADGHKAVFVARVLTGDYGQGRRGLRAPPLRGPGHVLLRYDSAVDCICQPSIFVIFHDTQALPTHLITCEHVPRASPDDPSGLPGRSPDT
UniProt Q15818, sequence (Q15818 whole entry): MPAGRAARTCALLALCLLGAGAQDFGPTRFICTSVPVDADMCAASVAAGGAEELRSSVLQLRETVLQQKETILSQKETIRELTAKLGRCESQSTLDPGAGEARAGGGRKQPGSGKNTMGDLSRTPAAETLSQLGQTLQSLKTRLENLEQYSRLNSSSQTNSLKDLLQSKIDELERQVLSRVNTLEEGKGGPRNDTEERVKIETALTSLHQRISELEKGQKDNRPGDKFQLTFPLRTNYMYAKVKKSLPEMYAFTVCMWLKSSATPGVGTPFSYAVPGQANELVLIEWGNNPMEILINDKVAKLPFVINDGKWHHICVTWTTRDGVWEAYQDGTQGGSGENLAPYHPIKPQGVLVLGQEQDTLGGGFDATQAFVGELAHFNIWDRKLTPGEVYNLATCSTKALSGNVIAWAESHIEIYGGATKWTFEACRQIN
UniProt Q9BXB4, sequence (Q9BXB4 whole entry): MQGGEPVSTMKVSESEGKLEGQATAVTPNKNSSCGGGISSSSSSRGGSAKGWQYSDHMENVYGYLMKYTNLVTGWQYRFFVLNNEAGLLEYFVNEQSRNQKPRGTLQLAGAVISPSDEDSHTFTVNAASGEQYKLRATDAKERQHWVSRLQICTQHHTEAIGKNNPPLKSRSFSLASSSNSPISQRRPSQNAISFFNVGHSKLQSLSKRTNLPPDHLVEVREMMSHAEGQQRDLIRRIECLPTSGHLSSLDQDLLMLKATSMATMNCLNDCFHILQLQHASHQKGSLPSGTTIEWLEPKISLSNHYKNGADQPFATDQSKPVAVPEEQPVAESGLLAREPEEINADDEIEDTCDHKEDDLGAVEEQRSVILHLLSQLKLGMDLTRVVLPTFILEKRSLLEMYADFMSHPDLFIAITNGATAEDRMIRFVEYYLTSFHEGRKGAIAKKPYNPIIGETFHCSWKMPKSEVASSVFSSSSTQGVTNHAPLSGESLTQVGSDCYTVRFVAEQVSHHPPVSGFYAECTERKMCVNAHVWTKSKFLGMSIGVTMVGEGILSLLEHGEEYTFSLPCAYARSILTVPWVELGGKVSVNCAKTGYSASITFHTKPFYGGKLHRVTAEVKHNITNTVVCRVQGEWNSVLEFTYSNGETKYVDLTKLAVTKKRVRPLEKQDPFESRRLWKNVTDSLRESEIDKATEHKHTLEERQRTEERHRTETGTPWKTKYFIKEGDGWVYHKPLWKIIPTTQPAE
UniProt Q9UQ80, sequence (Q9UQ80 whole entry, looked up): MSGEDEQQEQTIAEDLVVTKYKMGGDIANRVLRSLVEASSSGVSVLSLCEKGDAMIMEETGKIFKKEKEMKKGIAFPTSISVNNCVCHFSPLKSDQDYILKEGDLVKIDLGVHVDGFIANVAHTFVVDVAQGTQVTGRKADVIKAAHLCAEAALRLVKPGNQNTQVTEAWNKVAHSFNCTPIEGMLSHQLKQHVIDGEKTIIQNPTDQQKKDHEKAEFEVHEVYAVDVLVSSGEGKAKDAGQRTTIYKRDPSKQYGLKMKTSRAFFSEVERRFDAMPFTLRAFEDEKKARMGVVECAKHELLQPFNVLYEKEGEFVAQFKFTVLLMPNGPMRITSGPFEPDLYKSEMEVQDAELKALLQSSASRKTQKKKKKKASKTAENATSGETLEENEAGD
UniProt Q9H074, sequence (Q9H074 whole entry, looked up): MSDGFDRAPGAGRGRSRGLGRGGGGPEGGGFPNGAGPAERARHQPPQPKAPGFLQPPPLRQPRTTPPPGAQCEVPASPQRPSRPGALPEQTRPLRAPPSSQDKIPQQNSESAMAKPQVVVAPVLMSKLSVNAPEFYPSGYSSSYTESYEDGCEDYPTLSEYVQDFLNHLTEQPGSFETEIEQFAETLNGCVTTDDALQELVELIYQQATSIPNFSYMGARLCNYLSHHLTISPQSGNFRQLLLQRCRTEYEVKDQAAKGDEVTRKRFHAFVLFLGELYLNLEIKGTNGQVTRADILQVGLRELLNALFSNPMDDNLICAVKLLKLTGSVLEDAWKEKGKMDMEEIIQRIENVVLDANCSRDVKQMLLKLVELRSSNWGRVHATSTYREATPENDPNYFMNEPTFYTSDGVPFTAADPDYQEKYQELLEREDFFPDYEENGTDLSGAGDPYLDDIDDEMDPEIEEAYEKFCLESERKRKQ
UniProt Q96D46, sequence (Q96D46 whole entry, looked up): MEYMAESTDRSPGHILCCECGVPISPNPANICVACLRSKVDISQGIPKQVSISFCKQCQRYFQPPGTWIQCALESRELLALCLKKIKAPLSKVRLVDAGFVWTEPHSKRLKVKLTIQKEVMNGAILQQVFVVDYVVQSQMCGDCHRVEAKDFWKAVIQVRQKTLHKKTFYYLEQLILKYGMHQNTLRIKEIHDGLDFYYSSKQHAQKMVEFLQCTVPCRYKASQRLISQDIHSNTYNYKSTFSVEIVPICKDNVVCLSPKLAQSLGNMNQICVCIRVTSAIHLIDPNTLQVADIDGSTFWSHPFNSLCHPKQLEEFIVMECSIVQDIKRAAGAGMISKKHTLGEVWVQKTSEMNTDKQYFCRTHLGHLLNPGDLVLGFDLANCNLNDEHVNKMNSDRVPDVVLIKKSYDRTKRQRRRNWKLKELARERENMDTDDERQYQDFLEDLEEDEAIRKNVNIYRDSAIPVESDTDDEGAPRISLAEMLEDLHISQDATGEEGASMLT

For the target “PARP10_Q53GL7_981+983+1004_YDSAVDCICQPSIFVIFHDTQALPTHLITCEHVPR (UniProt Q53GL7)”, the “probe-labelled cysteine peptide fold change” value reads like this: (10 µM) -0.073; (50 µM) -0.214.
Taken in the same sequence, the figures for “NDUFAB1_O14561_140_LMCPQEIVDYIADK (UniProt O14561)” were 0.0668 and 0.303.
Taken in the same sequence, the figures for “PAIP1_Q9H074_318_ELLNALFSNPMDDNLICAVK (UniProt Q9H074)” were 0.025 and -0.0474.
Regarding “NCAPH_Q15003_418_TMCPLLSMKPGEYSYFSPR (UniProt Q15003)”, the “probe-labelled cysteine peptide fold change” value (10 µM) was -0.315 and the “probe-labelled cysteine peptide fold change” value (50 µM) is -1.3.
Taken in the same sequence, the figures for “NMD3_Q96D46_71_YFQPPGTWIQCALESR (UniProt Q96D46)” were 0.274 and 0.174.
The corresponding values for “OSBPL5_Q9H0X9_233_CWLDALELALR (UniProt Q9H0X9)” are -0.0895 and -1.08.
The corresponding values for “NUP160_Q12769_369_RGQFCIFQLVSTESNR (UniProt Q12769)” are 0.142 and 0.732.
Consider “NCDN_Q9UBB6_725_MAALEQCLSEP (UniProt Q9UBB6)”, for which the “probe-labelled cysteine peptide fold change” value by setting is: (10 µM) -0.0326; (50 µM) 0.207.
The corresponding values for “OSBPL11_Q9BXB4_34_NSSCGGGISSSSSSR (UniProt Q9BXB4)” are -0.246 and -1.2.
The corresponding values for “NPEPL1_Q8NDH3_311_DNLHAVFCLAENSVGPNATRPDDIHLLYSGK (UniProt Q8NDH3)” are 0.19 and 0.0596.
Taken in the same sequence, the figures for “PA2G4_Q9UQ80_87_GIAFPTSISVNNCVCHFSPLK (UniProt Q9UQ80)” were 0.196 and -0.0395.
For the target “NOTCH1_P46531_1295_VNDFHCECR (UniProt P46531)”, the “probe-labelled cysteine peptide fold change” value is, setting by setting: (10 µM) -0.0235; (50 µM) -0.102.
As for “NPTX1_Q15818_89_CESQSTLDPGAGEAR (UniProt Q15818)”, the “probe-labelled cysteine peptide fold change” value by setting is: (10 µM) -0.365; (50 µM) 0.0326.
As for “NPEPL1_Q8NDH3_414_CGDLVHPLVYCPELHFSEFTSAVADMK (UniProt Q8NDH3)”, the “probe-labelled cysteine peptide fold change” value is -0.0627 (10 µM) and -0.0815 (50 µM).
The corresponding values for “NDC1_Q9BTX1_9_ATAVSRPCAGR (UniProt Q9BTX1)” are -0.485 and -1.69.
